This is one part of the list. The list includes weakly bound sequences.

This assay has as its target MaxL homodimer (UniProt P61244). Description: universal protein-binding microarray (PBM). The conditions noted are these: PBS-based mixture, 10 nM His-tagged protein dimer, 2% milk, 200 ng/uL BSA, 50 ng/uL salmon testes DNA, 0.02% TX-100; detection with Alexa 488 anti-His …; high values mean tight binding; most listed sequences are background and not binding sites; double strand, one strand shown.
Chain of UniProt P61244 (P61244 whole entry): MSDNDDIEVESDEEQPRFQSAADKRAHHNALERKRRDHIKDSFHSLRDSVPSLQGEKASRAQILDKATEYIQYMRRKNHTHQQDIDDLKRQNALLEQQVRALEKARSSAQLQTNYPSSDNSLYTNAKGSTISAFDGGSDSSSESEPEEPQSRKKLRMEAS
As to GAAATGAA, the binding signal (normalized occupancy) came out at 0.0749. Under CATAGACA stands 0.0809. For the sequence CTGAGCGA, the binding signal (normalized occupancy) worked out at 0.0679.

Turning to GAGTCGCA, the binding signal (normalized occupancy) turned out to be 0.0717. As for CCGAACCG, the binding signal (normalized occupancy) was found to be 0.0718. On to CTGTAGGA, for which the binding signal (normalized occupancy) amounted to 0.0736. For CGAGTGCG, the binding signal (normalized occupancy) was 0.0772. In the case of ATTACTAA, the binding signal (normalized occupancy) stood at 0.0798. Turning to AGTTCGGG, the binding signal (normalized occupancy) was determined as 0.0708. With AGAGCTCT, the binding signal (normalized occupancy) was 0.0713. Turning to ATATCAAC, the binding signal (normalized occupancy) was 0.0785.

For the sequence CCGTCAGC, the binding signal (normalized occupancy) turned out to be 0.0671. As for CGTGGCGC, the binding signal (normalized occupancy) turned out to be 0.0838. Consider GCGAATCC, for which the binding signal (normalized occupancy) came to 0.0769. For the sequence AATAGCCC, the binding signal (normalized occupancy) turned out to be 0.0752. On to AGTCCGAT, for which the binding signal (normalized occupancy) stood at 0.0714.

Regarding ACATTGCG, the binding signal (normalized occupancy) turned out to be 0.0807. For CAATCGGG the value was 0.0722. Take ATGAGGAA: the binding signal (normalized occupancy) turned out to be 0.0798. For CTAACCAA the value was 0.0724; for ACTAGACG, 0.0772; for AGAAAGCC, 0.0708. CATGCCAG: the binding signal (normalized occupancy) was determined as 0.0874. Under AACATTGC stands 0.0715. Regarding AGATGATA, the binding signal (normalized occupancy) was 0.0844. Take CTTATTGC: the binding signal (normalized occupancy) came out at 0.0763. For CACAAAAC the value was 0.0751; for AGCCGAAC, 0.0687; for AGCTATTG, 0.0682.

For ACGGTTGC, the binding signal (normalized occupancy) was determined as 0.0771. In the case of ACGTCGAG, the binding signal (normalized occupancy) amounted to 0.0794. As for CGAGTCAG, the binding signal (normalized occupancy) turned out to be 0.0712.

On to ATGGTTCC, for which the binding signal (normalized occupancy) is 0.0827. For AGCCTTAT, the binding signal (normalized occupancy) was found to be 0.081. For TGATCAAA the value was 0.0804.

On to AACTGAAC, for which the binding signal (normalized occupancy) turned out to be 0.0746. For CCGCTCTC the value was 0.0714; for CCTCCAAC, 0.0778.

On to GAGCCAAA, for which the binding signal (normalized occupancy) is 0.0676.

Take CTCCTCTA: the binding signal (normalized occupancy) amounted to 0.0758.

AATCCAGG: the binding signal (normalized occupancy) came out at 0.0741.

CGGCTTCC: the binding signal (normalized occupancy) turned out to be 0.0699. As to AAAGGCCG, the binding signal (normalized occupancy) turned out to be 0.0652. On to ATGTTATC, for which the binding signal (normalized occupancy) amounted to 0.0868.

With ATACACAC, the binding signal (normalized occupancy) amounted to 0.094. AGGTCGGG: the binding signal (normalized occupancy) was found to be 0.0708. Consider GGCCCTGA, for which the binding signal (normalized occupancy) worked out at 0.072.

For ATGCTGGG, the binding signal (normalized occupancy) was found to be 0.0808. For the sequence AGTCGTGA, the binding signal (normalized occupancy) is 0.0749.

CGGATTGA: the binding signal (normalized occupancy) was found to be 0.0709. Regarding AGTATCCC, the binding signal (normalized occupancy) came out at 0.0806. As to CGTGTTTC, the binding signal (normalized occupancy) turned out to be 0.0838. Turning to GGAAGACA, the binding signal (normalized occupancy) was 0.0718. Regarding AAGATACT, the binding signal (normalized occupancy) was determined as 0.0762. For the sequence TATGCATA, the binding signal (normalized occupancy) stood at 0.0811. For the sequence AGGGTCCC, the binding signal (normalized occupancy) worked out at 0.0702. Take CCGCTAGA: the binding signal (normalized occupancy) was determined as 0.0691. Turning to CCATGCTC, the binding signal (normalized occupancy) worked out at 0.0989. ACGGATTC: the binding signal (normalized occupancy) turned out to be 0.0741.

For the sequence GAATTGCA, the binding signal (normalized occupancy) turned out to be 0.0746.

Turning to CCATCATC, the binding signal (normalized occupancy) worked out at 0.0845. For the sequence CTAAAACC, the binding signal (normalized occupancy) is 0.0748. Under AGAACACC stands 0.0771. As for ACACCGGT, the binding signal (normalized occupancy) was 0.076. CCATAGCC: the binding signal (normalized occupancy) was found to be 0.0762. For AGTCACAA, the binding signal (normalized occupancy) was 0.0805.

Turning to GCATCCCC, the binding signal (normalized occupancy) was 0.0804. With CAACCTAA, the binding signal (normalized occupancy) turned out to be 0.0744. Under ATCGCAAA stands 0.0676. GCAGACGC: the binding signal (normalized occupancy) was determined as 0.0701. For AGCAATTC the value was 0.0722; for GGTAATAC, 0.0772. Regarding CAATTCGC, the binding signal (normalized occupancy) came to 0.0734. For the sequence AGCTCTAA, the binding signal (normalized occupancy) was 0.0711. For the sequence ATAGCTCC, the binding signal (normalized occupancy) was 0.0755. Turning to CCCGTAAA, the binding signal (normalized occupancy) was determined as 0.0752. For the sequence CGAGTCGA, the binding signal (normalized occupancy) came out at 0.0685.

Regarding GCATCAAC, the binding signal (normalized occupancy) worked out at 0.073. Under CTATGCTC stands 0.0822; under TATCACGA, 0.0859; under ACGATGGG, 0.0824. On to ATCTGTTC, for which the binding signal (normalized occupancy) amounted to 0.0795.

For the sequence ACCAACTA, the binding signal (normalized occupancy) is 0.0737. For the sequence AAGATCGT, the binding signal (normalized occupancy) amounted to 0.0775. For CTCGTCTA, the binding signal (normalized occupancy) came out at 0.0671. Consider GCTACTCC, for which the binding signal (normalized occupancy) was found to be 0.0693.

In the case of AGAACTAA, the binding signal (normalized occupancy) was 0.0778. Consider GTTCAGTA, for which the binding signal (normalized occupancy) amounted to 0.0782.

In the case of CATACATG, the binding signal (normalized occupancy) turned out to be 0.0969. In the case of GTAGGAAC, the binding signal (normalized occupancy) was determined as 0.0696. As to AAATACGC, the binding signal (normalized occupancy) was 0.0746.

TGCGGAAA: the binding signal (normalized occupancy) amounted to 0.0767. As for ATGTACTG, the binding signal (normalized occupancy) amounted to 0.0815.

Consider GTAGATGA, for which the binding signal (normalized occupancy) amounted to 0.0801. ATCTCCCA: the binding signal (normalized occupancy) is 0.0787. As for CGGTTGCA, the binding signal (normalized occupancy) came to 0.0736. Regarding CATATATG, the binding signal (normalized occupancy) was 0.0911. For AGTTTCTG the value was 0.074; for ATGAGCAC, 0.0858; for GCTTCCAA, 0.0699. For TAGGGACA, the binding signal (normalized occupancy) is 0.0764. Turning to ACTCCAGG, the binding signal (normalized occupancy) amounted to 0.0738.

As for CGATTCAA, the binding signal (normalized occupancy) was determined as 0.0749. For ACCGCTCT the value was 0.0676; for ACGTATTC, 0.079; for GGAGTACC, 0.0698.

Turning to GACTCGCC, the binding signal (normalized occupancy) turned out to be 0.0703. Under CCTTTAGA stands 0.0706. As to CTAGCGAG, the binding signal (normalized occupancy) was 0.0671.

As to AAGTGTAT, the binding signal (normalized occupancy) was determined as 0.0806.

Values taken from article PMC4242493.
